The supplement of paper PMC11417369
± gives the standard deviation of the averaged measurements. The list shows a part of the results.

System: PfAP2-G AP2 domain (GST-tagged)
Test: gcPBM binding intensity (ln(normalized median fluorescence intensity)); higher = stronger DNA binding
Summary of the method: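 For binding intensity, the highest Masliner-normalised natural-log median intensity across replicate spots of either probe orientation was taken. Protein bound to the array was stained with Alexa488 anti-GST antibody and scanned at 488 nm. The protein, GST-tagged P. falciparum DNA-binding domains from E. coli at about 25 μg on average, had been applied for 1 h to an Agilent 4 × 180k array of primer-extended double-stranded 36-bp intergenic genomic probes and negative controls.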

Sequence	gcPBM binding intensity (ln)
ATTTATATATTTATACGTACTTATATATTGTTACAT [XGTACX_site6254]	11.2 ± 0.73
TAGAAAATATAAAAATGTACGTAAATAAAATGTGCA [XGTACX_site3459]	11.4 ± 0.91
TTAAATAAGTAATTATGTACATATAATATTCTTTAT [XGTACX_site5280]	11.2 ± 0.72
TATAGGAATATATGGTGTACCTATAAATCTGACATA [XGTACX_site8111]	11.2 ± 0.75
TCTTAAGGAAAAGAGTGTACAGAAATTTTTATTAAC [XGTACX_site6139]	11.2 ± 0.7
ATCCGAGTGTGAAATACACACATGATAATGTGAATG [CACACA_site919]	9.94 ± 0.11
AATTATATTACAAACTGTACATATATAATTTGTCCA [XGTACX_site6009]	11 ± 0.67
ACACATACTAAAATGTTGTGAAATATGATAATGTGA [CACACA_negctrl_site851]	9.78 ± 0.2
TTATAATAATAGAACTTTATGTAGAAAAAAGGAAAA [XGTACX_negctrl_site116]	9.83 ± 0.11
TCTTAAAAAATAGGGACACGTAAATATAATATATAA [CACACA_negctrl_site554]	11 ± 0.65
AAAAAAAAAAAAAAAACACACATATATATATATATA [CACACA_site2436]	10.4 ± 0.69
CACAGACACGGACACACACACACACCCACATATATA [CACACA_site4355]	11.4 ± 1
ATATATTTTAAATATATTATTATTGCATTGTGAAAA [TGCATGCA_negctrl_site106]	9.75 ± 0.21
TATATATATATATATAGTACATATTAATTAATTTAT [XGTACX_site8198]	10.8 ± 0.63
AAAAAAAAAAAATAGACACACATATTATATATATAT [CACACA_site1419]	9.88 ± 0.28
TATTATTCTATACATTGTACATATTTTATAGTATGT [XGTACX_site73]	11.1 ± 0.52
TTCATATAACCTTATAGTACATAATTAAAAATATAA [XGTACX_site6328]	10.9 ± 0.71
AAAAAAAAAAAAAAAACACACATATAGGTATAAATA [CACACA_site7528]	10.2 ± 0.29
CACGCATATATACATACATGCATATATACATCCATG [TGCATGCA_site667]	9.95 ± 0.085
TTTAAAACCTTACATACACACAAATATGTAAATATA [CACACA_site6464]	9.92 ± 0.11
AAACTTGACAGACACACACACACATATATAAAAAAA [CACACA_site757]	10.3 ± 0.48
GTTATATTATTCATACGTACCTATATTTCTATTAAC [XGTACX_site3447]	10.9 ± 0.45
ATATCTATAATAAATACACACATTTATATAGATAAA [CACACA_site7518]	9.95 ± 0.22

Sequence	gcPBM binding intensity (ln)
AACAGCATTATTTCTTATTTTTTTTTTGATATATTT [GTGCAC_negctrl_site114]	9.79 ± 0.042
TGATAACCTCACAAATGTACGTACGGGGCTAGCATT [XGTACX_site4157]	11.4 ± 0.78
ATGTGTTGGGAAAAGGCATGCACTTTTTTTTTTTTT [TGCATGCA_site707]	10.2 ± 0.11
TTTTCCTTATATTATGCATGCAGGGTTTGACATTAT [TGCATGCA_site826]	10.1 ± 0.18
CAAGGAACCAGACACACACACATAAATGTATTTATA [CACACA_site6491]	10.1 ± 0.16
TTTTTTTTTTTCTTTTGTACGTATAAAATTATATAA [XGTACX_site2453]	11.5 ± 0.66
TTAGGCAAGGCGGGGGGTACGTTTTTATATAATTAT [XGTACX_site8029]	11.6 ± 0.87
TTAGATTTATAAGTGTGTACGTAAAATACTTAATAA [XGTACX_site8246]	11.6 ± 1.1
AACTCATAAAATAATGGTACACAAAAAAAATAAATA [XGTACX_site7648]	11.4 ± 0.81
TGTGTGTGCTTATTTTGTACATATTAGGTAAATATT [XGTACX_site6329]	11.1 ± 0.63
TTTATGGAATAATCACGTACACACAAGAAAAAAAAA [XGTACX_site985]	11.4 ± 0.91
TTTTTATCTAATCTAATATTATATTATACATATAAT [XGTACX_negctrl_site275]	9.725 ± 0.035
AAAGGAAATAAAAACGCACACAGAAATAATATCTAT [CACACA_site457]	10.07 ± 0.099
ATATTTCATTTTTGTACACACAACGTTGGAGGGTTT [CACACA_site3043]	11.4 ± 0.77
TAAAAAATTACATATTGTACAGGCAAAATTACACAT [XGTACX_site1152]	10.6 ± 0.4
ACTAAACGAATAAATTGTACAAAGAAATATATTCAT [XGTACX_site6766]	10.9 ± 0.57
ACTACGTGGATTAGTTCAAGGGAACACGTCCTATAC [CACACA_negctrl_site1427]	10.4 ± 0.15
CAACAAAAGTTATTTACACACAAAAGGCAAGGAAAT [CACACA_site7013]	10.31 ± 0.064
AAAAAATATATATGCACACACAAAAAAACAAATTAA [CACACA_site1278]	10.2 ± 0.16
AATATAAAAAATAGTTGTACTATATTTAAATATGAC [XGTACX_site2937]	11.2 ± 0.85
AGTTTGCATATGGAAGTGCATTACCTTGAACATCAT	10.055 ± 0.007
TCATATAAATACACGTGTACATATATATATTACAGT [XGTACX_site1954]	11.5 ± 0.81
TATATGTTTTATAGTACACACATAAATGGACATACT [CACACA_site2191]	11.4 ± 0.83

Sequence	gcPBM binding intensity (ln)
TGAATTTAGATATATACACACAAAAGTATATACAAT [CACACA_site2804]	10.04 ± 0.035
TTTTTTTTATATAGTAGTACTAATTAGAATTTTTAT [XGTACX_site7476]	11.2 ± 0.65
CCCACTAAAAAACACACACACACACCCATATATATA [CACACA_site6140]	9.98 ± 0.18
ATATGTATTAAGTGTACACATATAATCTATCTTGTT [CACACA_site5329]	11.5 ± 0.87
CTCAAATGTTATTGTAGTACCTAAAAAATATATTCT [XGTACX_site1970]	11.2 ± 0.61
TACATACATACATACACACATACATATGTATATATA [CACACA_site2480]	10.4 ± 0.17
TAATGCCATAATACGTGTACTTAATATATTAGAACA [XGTACX_site5809]	11.4 ± 0.89
ACCATATAAATAAACACACACACACGGATATAAATA [CACACA_site7157]	10.1 ± 0.18
GTTGGTAGGCGGTACGGTACACGTAAAGTTTTTCTT [XGTACX_site7706]	11.2 ± 0.45
ATAAATGACAAATTAACACACATATATTATATATAT [CACACA_site3899]	9.95 ± 0.099
AGTGGTGTTAAATGTTGTACGATTTTGTGTTATTCG [XGTACX_site178]	11.3 ± 0.87
TTTTTGTTATATAAAGTGCAGTGACAAGCAGTTTAA	10.2 ± 0.27
ATTTAAGCATTATTTTGTACGAAAATAAAAAAATGA [XGTACX_site6958]	10.8 ± 0.52
ATATAAAAAAATAAAACACACACATATATATTATAT [CACACA_site8909]	9.94
TATAATGCTCTTCTTTGTACATATTATGATTATATT [XGTACX_site2332]	10.7 ± 0.4
AAAGGAAAATGTGTAAAAAGAAATGCTAGGTATATA [GTGCAC_negctrl_site699]	9.77 ± 0.27
ATATATATATAATATAGTACGTATAATATATGAATC [XGTACX_site4385]	11.2 ± 0.73
ATATCATTTTCTAGCACACACATTGTTATTACCTTG [CACACA_site902]	10.095 ± 0.007
AGTCTGAATAAAATTACACACATATACAGATATATA [CACACA_site5054]	9.8 ± 0.014
TTTTTTTAAATATACACACACATTTATACAGATATA [CACACA_site5811]	10.2 ± 0.27
TTTCTAAAAATAAGAACACACACATATAAGCATATA [CACACA_site8714]	10.12 ± 0.099
TATTAGAACATATATGCATGCAATAGATATTCCAAT [TGCATGCA_site297]	9.49 ± 0.16
TATGTATAATTTCATTGTACTTTTGATATTATCATA [XGTACX_site280]	11.2 ± 0.92

Sequence	gcPBM binding intensity (ln)
AAGAAAAAGGAACGGAAAAACAAACAAGGGGCCCAA [TGCATGCA_negctrl_site4]	10.8 ± 0.63
AATGGTATAAACAATACACACATAATATATATATTG [CACACA_site4997]	10.05 ± 0.085
TTTTCTAAATTAATAATACACACTTGCTAAAATCAT [CACACA_site3207]	10.1 ± 0.19
ACTGCGTTTTTACACGCGCACTGCAATGAACAATAT	10.3 ± 0.2
TATGTAACAAAAAAAAGTACACATATATATAGTGTA [XGTACX_site7772]	11.6 ± 0.85
AAGATAATCACAAAATGTACAGGAAATATGACAACC [XGTACX_site3607]	11 ± 0.5
TTTAAATATTACATATGTACTTATAAATATATATAT [XGTACX_site1284]	11.2 ± 0.64
AAGGAATAGGCATATACACACAGGTACAGATATATA [CACACA_site4402]	11 ± 0.46
AAAAAAAAAAAAAACACACAAATCATAAATAAATAT [CACACA_site6362]	10.1 ± 0.36
ATTATGTGCCAATACACACACACATATATATATATA [CACACA_site468]	10.2 ± 0.13
TAAAATATGTCATGTGGTACATGAATAGCTTTTATT [XGTACX_site3809]	11 ± 0.64
AAAAAAAAAATTGAAAGTACAAATATGTATTATATA [XGTACX_site2455]	10.8 ± 0.53
TAATAGTATATAAAAAGTACATAATAAGATATGAAA [XGTACX_site1000]	11.3 ± 0.83
TTATTTTTTATTATGTGTACATAACATCGCGATACA [XGTACX_site4359]	11.5 ± 0.98
AAAACTTGTCAGAATGGACACACGAATTAAAGGCCT [CACACA_site1215]	10.5 ± 0.33
TATTTATACATACATACACACATATAGATTTATATT [CACACA_site7851]	10.1 ± 0.13
CAACATTCGTATATCACACATTTGCATGTTGTCAAT [CACACA_site4470]	10.3 ± 0.25
GATTTAGTTATTTAAACATGCAATTTATATAGAATT [TGCATGCA_site47]	9.98 ± 0.3
ATAATCACAAATAATTGTACATTTTGTTATATATAT [XGTACX_site7704]	10.8 ± 0.45
AAAAATTTCATATTCACACACAAAAAAAAAAAATAT [CACACA_site1592]	10 ± 0.2
